# Among all 340,000 compounds or so, about 12,000 (3.5%) were called active. The inconclusive results got no clear call from the source; some entries with a clear call stand among them for comparison. Calls follow the shape of the dose curve; as a rule, active = well fitted inhibition curve with a large enough effect; inconclusive = small, poorly fitted or top-dose-only effect, or another doubt; inactive = no such curve, though single readings can be large or run the other way. Potencies of inconclusive entries are left out as doubtful fits.
# Test: qHTS Assay for Inhibitors of Hepatitis C Virus (HCV)
# Details: Huh7.5.1 HCVcc-Cre (HCVcc is cell-culture hepatitis C virus) infection, luciferase reporter, 44 h; activity change, negative = inhibition: at 41.8 µM (top of the series)
# In short: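 After 44 h co-culture of compound, cells and HCVcc-Cre (~0.5 moi), substrate is added for 15 min at room temperature and luciferase measured over 15 sec. Cells were seeded at 1,000/well and pre-cultured 4 h.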
# % is scaled to controls: 0 for no effect and ±100 for the full control effect; potency is read from the fitted curve at half-maximal effect; tags tell the direction and shape of the fitted curve.
Compound,"activity change, negative = inhibition",Potency
O=C(NC(=S)Nc1ccc(CN2CCOCC2)cc1)c1ccco1,inactive: 6.22%,–
CCCNC(=O)c1oc2ccc3c(c2c1C)C(=O)CC(C)(C)O3,–,active: 10 µM
Cc1ccc(C)c(S(=O)(=O)NCCOc2nc(NC(C)C)nc(NC(C)C)n2)c1,inactive: -28.8%,–
CCCCCn1c(-c2ccco2)nc2nc3ccccc3nc21,inactive: -16.2%,–
CC(C)N(C(=O)[C@H]1C[C@H](CC(=O)NCCN2CCOCC2)C(=O)N2CCc3c([nH]c4ccc(Cl)cc34)[C@]12C)C(C)C,–,"inconclusive [inhibitor, single point]"
C/C(=N\NC(=O)Cc1c[nH]c2ccccc12)c1ccc2ccccc2c1,inactive: -15.2%,–
Cn1c(=O)n(Cc2ccc(Cl)cc2)c(=O)c2c1nc1n2CCN1Cc1ccco1,–,active: 15.8 µM
Cc1cc(C)n(-c2cc(N3CCOCC3)nc(-c3ccccc3)n2)n1,–,"inconclusive [inhibitor, full curve]"
Cc1ccc(NC(=O)COC(=O)CNC(=O)c2ccc(C)s2)cc1,–,"inconclusive [inhibitor, single point]"
O=C(O)c1ccc(N2N=C(c3ccccc3)CC2c2ccccc2)cc1 (stereo unspecified),inactive: 6.29%,–
[O-]c1ccccc1-[n+]1c(-c2ccccc2)cc(-c2ccccc2)cc1-c1ccccc1,–,active: 6.31 µM
CCOc1ccc(-c2cnc(NCc3cccc4ccccc34)n2CCOC)cc1,–,active: 10 µM
CN(C)S(=O)(=O)c1ccc(C(=O)OCC2COC(C)(C)O2)cc1 (stereo unspecified),inactive: 4.32%,–
CCN1C(C)=CC(=O)[C@@H](O)[C@H]1c1ccccc1Br,inactive: 11.3%,–
O=[N+]([O-])c1ccc(S(=O)(=O)N(CC(O)CN2CCCCC2)c2ccccc2)cc1 (stereo unspecified),–,"inconclusive [inhibitor, full curve, poor fit]"
Nn1c(Cc2ccccc2)n[nH]c1=S,inactive: 21.4%,–
Brc1ccc(-[n+]2c(-c3ccccc3)cc(-c3ccccc3)cc2-c2ccccc2)cc1,–,"inconclusive [inhibitor, full curve]"
c1ccc2c(c1)CCCN2c1nc(N2CCOCC2)nc(N2CCOCC2)n1,–,"inconclusive [inhibitor, partial curve]"

Compound,"activity change, negative = inhibition",Potency
CN(C)/C=C/c1[nH]c(=O)[nH]c(=O)c1[N+](=O)[O-],inactive: 17.6%,–
Cc1ccc(NC(=O)c2ccc(OCc3c(C)noc3C)cc2)c(C)c1,–,"inconclusive [inhibitor, single point]"
O=C(O)c1ccc(Cl)c(S(=O)(=O)N2CCCCCC2)c1,inactive: 20.8%,–
CCc1cccc2c(C(=O)COC(=O)c3nccnc3N)c[nH]c12,–,"inconclusive [inhibitor, single point]"
CCN1C(=O)[C@H]2[C@@H](c3ccc(C)cc3)N3C(=O)N(c4cccc(Cl)c4)C(=O)[C@@]3(Cc3ccc(Cl)cc3)[C@H]2C1=O,–,"inconclusive [inhibitor, single point]"
C=CC(C)(O)CCC=C(C)C (stereo unspecified),inactive: 9.39%,–
COC(=O)c1sccc1NC(=O)c1cccc(OC)c1,–,"inconclusive [inhibitor, single point]"
CCN1C[C@@H]2[C@@H]3C(=O)N(Cc4ccccc4)C(=O)[C@@H]3[C@](Cc3ccccc3)(C1=O)N2C(=O)c1ccc(C(C)(C)C)cc1,inactive: 3.81%,–
CCSc1nc(C)cc(C)c1S(=O)(=O)c1ccccc1C,–,"inconclusive [inhibitor, single point]"
COc1ccccc1-c1cccc([C@@H]2C[C@H]3[C@H](CON3C)CN2S(=O)(=O)c2ccccc2C)c1,–,"inconclusive [inhibitor, partial curve]"
C=CCNC(=O)c1ccc(-c2nc3ccccc3nc2-c2ccccc2)cc1,–,"inconclusive [inhibitor, partial curve, poor fit]"
O=C(CN1CCCCC1)NCCNC(=O)CN1CCCCC1,inactive: -18.5%,–
O=C(NCc1ccccc1Cl)c1cccc(NC2=NC3CS(=O)(=O)CC3S2)c1 (stereo unspecified),inactive: 15.6%,–
CCc1ccc(OCCOCC(O)CN2CCN(Cc3ccc(Cl)cc3)CC2)cc1 (stereo unspecified),–,"inconclusive [inhibitor, partial curve]"
CCOC(=O)C1CCCN(CC(=O)Nc2nc(-c3ccccc3)cs2)C1 (stereo unspecified),inactive: -20.9%,–
Cn1c(NC(=O)C(C)(C)Oc2ccc(Cl)cc2)cc(=O)n(C)c1=O,–,"inconclusive [inhibitor, partial curve, poor fit]"
COc1ccc(NC(=O)CSc2ccc3c(c2)OCCO3)cc1S(N)(=O)=O,–,"inconclusive [inhibitor, single point]"
COc1cccc(CN(C)C(=O)c2cc(-c3cccs3)nc3ccccc23)c1,–,"inconclusive [inhibitor, single point]"

# From PubChem BioAssay AID651820 (National Center for Advancing Translational Sciences (NCATS), 2012)
